The list shows a part of the results.
Legend:
Experiment in all cases: glycan array binding signal (z-score within array); higher = stronger binding
Details in all cases: glycan notation: IUPAC condensed, linker removed
Fuc(a1-2)Gal = molecular target: Fuc(a1-2)Gal
Summary of the method: (§1)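 From the Consortium for Functional Glycomics database, 3228 arrays were curated, keeping only those whose protein sequence was available. Binding is given as a within-array Z-score averaged across arrays sharing a protein sequence and across linkers. Negative Z-scores can be read as non-binding.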

Fuc(a1-2)Gal(b1-3)GalNAc = molecular target: Fuc(a1-2)Gal(b1-3)GalNAc
Summary of the method: as §1

[1] = molecular target: Fuc(a1-2)Gal(b1-3)GalNAc(a1-3)[Fuc(a1-2)]Gal(b1-4)Glc
Summary of the method: as §1

[2] = molecular target: Fuc(a1-2)Gal(b1-3)GalNAc(a1-3)[Fuc(a1-2)]Gal(b1-4)GlcNAc
Summary of the method: as §1

[3] = molecular target: Fuc(a1-2)Gal(b1-3)GalNAc(b1-3)Gal
Summary of the method: as §1

[4] = molecular target: Fuc(a1-2)Gal(b1-3)GalNAc(b1-3)Gal(a1-4)Gal(b1-4)Glc
Summary of the method: as §1

[5] = molecular target: Fuc(a1-2)Gal(b1-3)GalNAc(b1-3)Gal(b1-4)Glc
Summary of the method: as §1

[6] = molecular target: Fuc(a1-2)Gal(b1-3)GalNAc(b1-4)[Neu5Ac(a2-3)]Gal(b1-4)Glc
Summary of the method: as §1

Fuc(a1-2)Gal(b1-3)GlcNAc = molecular target: Fuc(a1-2)Gal(b1-3)GlcNAc
Summary of the method: as §1

[7] = molecular target: Fuc(a1-2)Gal(b1-3)GlcNAc(b1-2)Man(a1-3)[Fuc(a1-2)Gal(b1-3)GlcNAc(b1-2)Man(a1-6)]Man(b1-4)GlcNAc(b1-4)GlcNAc
Summary of the method: as §1

[8] = molecular target: Fuc(a1-2)Gal(b1-3)GlcNAc(b1-2)Man(a1-3)[Fuc(a1-2)Gal(b1-3)GlcNAc(b1-2)Man(a1-6)]Man(b1-4)GlcNAc(b1-4)[Fuc(a1-6)]GlcNAc
Summary of the method: as §1

[9] = molecular target: Fuc(a1-2)Gal(b1-3)GlcNAc(b1-3)Gal(b1-4)Glc
Summary of the method: as §1

[10] = molecular target: Fuc(a1-2)Gal(b1-3)GlcNAc(b1-3)GalNAc
Summary of the method: as §1

[11] = molecular target: Fuc(a1-2)Gal(b1-3)GlcNAc(b1-3)[Fuc(a1-2)Gal(b1-3)GlcNAc(b1-6)]GalNAc
Summary of the method: as §1

[12] = molecular target: Fuc(a1-2)Gal(b1-3)GlcNAc(b1-3)[Gal(b1-4)GlcNAc(b1-6)]Gal(b1-4)Glc
Summary of the method: as §1

[13] = molecular target: Fuc(a1-2)Gal(b1-3)GlcNAc(b1-3)[Neu5Ac(a2-6)Gal(b1-4)GlcNAc(b1-6)]Gal(b1-4)Glc
Summary of the method: as §1

[14] = molecular target: Fuc(a1-2)Gal(b1-3)GlcNAc6S
Summary of the method: as §1

[15] = molecular target: Fuc(a1-2)Gal(b1-3)[Fuc(a1-4)]GlcNAc
Summary of the method: as §1

[16] = molecular target: Fuc(a1-2)Gal(b1-3)[Fuc(a1-4)]GlcNAc(b1-2)Man(a1-3)[Fuc(a1-2)Gal(b1-3)[Fuc(a1-4)]GlcNAc(b1-2)Man(a1-3)]Man(b1-4)GlcNAc(b1-4)GlcNAc
Summary of the method: as §1

[17] = molecular target: Fuc(a1-2)Gal(b1-3)[Fuc(a1-4)]GlcNAc(b1-2)Man(a1-3)[Fuc(a1-2)Gal(b1-3)[Fuc(a1-4)]GlcNAc(b1-2)Man(a1-6)]Man(b1-4)GlcNAc(b1-4)[Fuc(a1-6)]GlcNAc(b1-4)[Fuc(a1-6)]GlcNAc
Summary of the method: as §1

[18] = molecular target: Fuc(a1-2)Gal(b1-3)[Fuc(a1-4)]GlcNAc(b1-3)[Fuc(a1-3)[Gal(b1-4)]GlcNAc(b1-6)]Gal(b1-4)Glc
Summary of the method: as §1

[19] = molecular target: Fuc(a1-2)Gal(b1-3)[Fuc(a1-4)]GlcNAc(b1-3)[Gal(b1-4)GlcNAc(b1-6)]Gal(b1-4)Glc
Summary of the method: as §1

[20] = molecular target: Fuc(a1-2)Gal(b1-4)Fuc(a1-3)]GlcNAc(b1-2)Man(a1-3)[Fuc(a1-2)Gal(b1-4)[Fuc(a1-3)]GlcNAc(b1-2)Man(a1-6)]Man(b1-4)GlcNAc(b1-4)GlcNAc
Summary of the method: as §1

Fuc(a1-2)Gal(b1-4)Glc = molecular target: Fuc(a1-2)Gal(b1-4)Glc
Summary of the method: as §1

Fuc(a1-2)Gal(b1-4)Glc6S = molecular target: Fuc(a1-2)Gal(b1-4)Glc6S
Summary of the method: as §1

Fuc(a1-2)Gal(b1-4)GlcNAc = molecular target: Fuc(a1-2)Gal(b1-4)GlcNAc
Summary of the method: as §1

[21] = molecular target: Fuc(a1-2)Gal(b1-4)GlcNAc(b1-2)Man
Summary of the method: as §1

[22] = molecular target: Fuc(a1-2)Gal(b1-4)GlcNAc(b1-2)Man(a1-3)[Fuc(a1-2)Gal(b1-4)GlcNAc(b1-2)Man(a1-6)]Man(b1-4)GlcNAc(b1-4)GlcNAc
Summary of the method: as §1

[23] = molecular target: Fuc(a1-2)Gal(b1-4)GlcNAc(b1-2)Man(a1-3)[Fuc(a1-2)Gal(b1-4)GlcNAc(b1-2)Man(a1-6)]Man(b1-4)GlcNAc(b1-4)[Fuc(a1-6)]GlcNAc
Summary of the method: as §1

[24] = molecular target: Fuc(a1-2)Gal(b1-4)GlcNAc(b1-2)[Fuc(a1-2)Gal(b1-4)GlcNAc(b1-4)]Man(a1-3)[Fuc(a1-2)Gal(b1-4)GlcNAc(b1-2)Man(a1-6)]Man(b1-4)GlcNAc(b1-4)GlcNAc
Summary of the method: as §1

B1: MGL1 (Mus musculus), P49300 (protein)
chain: MIYENLQNSRIEEKTQEPGKAPSQSFLWRILSWTHLLLFSLGLSLLLLVVVSVIGSQNSQLRRDLGTLRATLDNTTSKIKAEFQSLDSRADSFEKGISSLKVDVEDHRQELQAGRDLSQKVTSLESTVEKREQALKTDLSDLTDHVQQLRKDLKALTCQLANLKNNGSEVACCPLHWTEHEGSCYWFSESEKSWPEADKYCRLENSHLVVVNSLEEQNFLQNRLANVVSWIGLTDQNGPWRWVDGTDFEKGFKNWAPLQPDNWFGHGLGGGEDCAHITTGGPWNDDVCQRTFRWICEMKLAKES
Fuc(a1-2)Gal
  glycan array binding signal (z-score): -0.091
Fuc(a1-2)Gal(b1-3)GalNAc
  glycan array binding signal (z-score): -0.211
[1]
  glycan array binding signal (z-score): -0.47
[2]
  glycan array binding signal (z-score): -0.41
[3]
  glycan array binding signal (z-score): -0.281
[4]
  glycan array binding signal (z-score): 0.584
[5]
  glycan array binding signal (z-score): -0.133
[6]
  glycan array binding signal (z-score): -0.167
Fuc(a1-2)Gal(b1-3)GlcNAc
  glycan array binding signal (z-score): -0.458
[7]
  glycan array binding signal (z-score): -0.169
[8]
  glycan array binding signal (z-score): 0.293
[9]
  glycan array binding signal (z-score): 0.139
[10]
  glycan array binding signal (z-score): -0.528
[11]
  glycan array binding signal (z-score): 0.698
[12]
  glycan array binding signal (z-score): -0.609
[13]
  glycan array binding signal (z-score): 0.032
[14]
  glycan array binding signal (z-score): 0.014
[15]
  glycan array binding signal (z-score): 0.187
[16]
  glycan array binding signal (z-score): 0.757
[17]
  glycan array binding signal (z-score): -0.429
[18]
  glycan array binding signal (z-score): 0.371
[19]
  glycan array binding signal (z-score): -0.054
[20]
  glycan array binding signal (z-score): -0.12
Fuc(a1-2)Gal(b1-4)Glc
  glycan array binding signal (z-score): 0.193
Fuc(a1-2)Gal(b1-4)Glc6S
  glycan array binding signal (z-score): -0.565
Fuc(a1-2)Gal(b1-4)GlcNAc
  glycan array binding signal (z-score): 0.009
[21]
  glycan array binding signal (z-score): 0.007
[22]
  glycan array binding signal (z-score): 0.049
[23]
  glycan array binding signal (z-score): -0.409
[24]
  glycan array binding signal (z-score): -0.272
